Values of other authors, collected in patent US20230332203A1, “RAPID ANTIBIOTIC SUSCEPTIBILITY TESTING” (IOWA STATE UNIVERSITY RESEARCH FOUNDATION, INC., priority 2022, published 2023).

Test system: E. coli MG1655 (MG, susceptible to ciprofloxacin)
Details: cited from earlier work

## O=C(O)c1cn(C2CC2)c2cc(N3CCNCC3)c(F)cc2c1=O [ciprofloxacin]
  previously recorded MIC obtained from broth dilution: 0.078 µg/mL
